Results as given in PubChem BioAssay AID1794842 (National Center for Advancing Translational Sciences (NCATS), 2023).
The campaign covered roughly 2,800 compounds. Fewer than 10 were called active. Calls come from the whole dose curve; as a rule, active = well fitted curve in the direction sought with a large enough effect; inconclusive = small, poorly fitted or top-dose-only effect, or another doubt; inactive = no such curve, though single readings can be large or run the other way. The list shows a part of the results.

The compounds below were run against Metallo-beta-lactamase type 2 (Klebsiella pneumoniae) (UniProt C7C422) (assay: qHTS to identify inhibitors of the New Delhi Metallo-beta-lactamase (NDM): Meropenem screen against the machine-based learning selections.). Details: Purified NDM-1, meropenem hydrolysis, absorbance 300 nm; at 38.4 µM (top of the series) unless noted.
Chain of UniProt C7C422 (C7C422 whole entry, looked up): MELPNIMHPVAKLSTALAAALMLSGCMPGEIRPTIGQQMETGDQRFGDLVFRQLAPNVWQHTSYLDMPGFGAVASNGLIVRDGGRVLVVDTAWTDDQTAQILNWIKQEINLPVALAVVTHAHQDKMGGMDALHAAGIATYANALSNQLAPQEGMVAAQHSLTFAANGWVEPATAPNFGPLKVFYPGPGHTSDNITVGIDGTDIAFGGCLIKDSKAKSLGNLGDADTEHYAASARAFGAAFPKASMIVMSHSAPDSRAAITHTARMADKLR
Procedure, shortened: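 Hydrolysis by 2 nM NDM-1 was followed by absorbance after >30 min compound preincubation in HEPES pH 7.0 buffer with 1 uM Zn2SO4. For nitrocefin (16.7 uM, 15 min, 485 nm) and meropenem (50 uM, 30 min, 300 nm), each substrate ran on separate plates.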
Note: % of control where 0% means no effect.

Activity change, negative = inhibition, inactive:
CC(C)C[C@@H](NC(=O)C1=C[C@@H](NC(=O)Cc2cccs2)[C@@H](O)[C@H](O)C1)C(N)=O 2.09% [at 57.5 µM], COc1ccc(CN[C@H]2C[C@H]3C(=O)NC[C@@H](CCC(=O)NCc4ccc(F)cc4)N3C2)cc1 0.678%, CCN1CCCC2(CCN(C(=O)NCCc3ccccc3F)C2)C1=O (centres undefined) -0.232%, NC(=O)[C@@H]1CCCN1C(=O)c1ccc2oc(-c3cccc(F)c3)nc2c1 15.5%, Cc1ccccc1[C@H]1C[C@@H](O)[C@@H](O)[C@@H]1NC(=O)c1c(-c2ccccc2)noc1C 0.36% [at 57.5 µM], COCCN(C)C[C@@H]1CN(C(=O)c2cc3ccccc3n(C)c2=O)C[C@@H]1CO 5.34%, Cn1cc(C(NC(=O)c2cnc(N)nc2-c2ccccc2)C2CC(O)C2)cn1 (centres undefined) -0.327%, Cc1ccccc1C(CC(=O)NCc1cccnc1)c1ccccc1 (centres undefined) -0.11%, COc1ccc2[nH]cc(CCNC(=O)C3(Cc4cccnc4)CCCCC(=O)N3)c2c1 (centres undefined) -1.27%, CN(C)c1cccc(C(=O)N2CCCC(n3cc(-c4nc(C5CC5)no4)nn3)C2)c1 (centres undefined) 1.59%, Cc1cc(=O)n(CC(=O)Nc2cccc(C(F)(F)F)c2)c(N2CCN(c3ccccc3)CC2)n1 0.0824%, CNC(=O)C1(N2CCC[C@H]2C(=O)N2CC[C@@H](O)C2)CCCCC1 39.6% [at 57.5 µM], CC(=O)Nc1cccc(-c2csc(CN3CCCC(C)(NC(C)=O)C3)c2)c1 (centres undefined) 0.136% [at 57.5 µM], Cc1cc(=O)n(CC(=O)Nc2ccccc2C)c(-c2ccc(F)cc2)n1 2.37%, Cc1nn(Cc2ccccc2)c(C)c1[C@@H]1C=C[C@@H](NC(=O)CCCC(=O)O)C1 0.689% [at 57.5 µM], CC(=O)N1CCc2nc(-c3ccc(Cl)cc3)nc(-c3ccccc3)c2C1 0.131%, COCCN1C(=O)[C@H]2CN(Cc3cccc(OC)c3)C[C@H]2C1=O -1.3%, CCC[C@@H]1CN(Cc2[nH]cc(C)c(=O)c2C)C[C@H]1C(=O)O 7.36%, Cc1ccc(S(=O)(=O)N2CCn3c(n[nH]c3=O)C2)c(C)c1 0.919%, Cn1nc(C(=O)NCc2nnc3ccc(-c4ccccc4)nn23)c2ccccc21 -0.309%, Cc1cc(OC(C)C(=O)N2CCc3c(nc[nH]c3=O)C2)cc(C)c1Cl (centres undefined) -0.336%, O=C(O)[C@]12CCCN[C@@H]1CCN(Cc1ccc(-c3ccccn3)cc1)C2 10.1%, CCN(CC)Cc1cnc2c(C(=O)N3CCC(N4CCCC4)CC3)cnn2c1 2%, CCCC1C=CCN1C(=O)c1coc(CN2CCN(c3ccccc3F)CC2)n1 (centres undefined) 0.646%, Cc1c(C(C)NC(=O)c2ccc(C#N)nc2)cnn1-c1ccc(F)cc1F (centres undefined) -0.922%, C[C@@H](NC(=O)[C@@H]1C[C@@H](NS(=O)(=O)c2cn(C)cn2)CCN1C(=O)c1ccco1)C(N)=O -0.135%, O=C1Nc2ccc(-c3ccc4c(c3)OCO4)cc2C(=O)N2CCN(C(=O)c3cccs3)C[C@H]12 6.52%, CC1=NOC2(CCN(C(=O)c3ccc(C)cc3)CC2)C1 -1.59% [at 57.5 µM], CC(C)c1ccc(Nc2n[nH]c(C(O)c3ccccc3)n2)cc1 (centres undefined) 0.347% [at 57.5 µM], CN(C)C(=O)NC1CCN(c2nc3ncccc3o2)CC1 18.2% [at 57.5 µM], Cn1nc(C2CCN(C(=O)c3cccc(Cl)c3)CC2)[nH]c1=O -1.52% [at 57.5 µM], CCNC(=O)[C@@H]1C[C@@H](NC(=O)c2csc(C)c2CC)CN1C1CCCC1 2.31%, Cc1ccc(CN2C(=O)[C@@H]3C[C@@H](O)CN3C3(CN(Cc4ccncc4)C3)C2=O)o1 17% [at 57.5 µM], CN(C)c1cccc(NC(=O)Cc2c[nH]c3ncc(-c4ccccc4)cc23)c1 2.03% [at 57.5 µM], Oc1ccccc1CN1CCOC[C@H]1c1ncc(-c2cccc(Cl)c2)[nH]1 9.9% [at 57.5 µM], CN(C)c1ccc(CN2Cc3[nH]cnc3C[C@H]2c2nc(-c3ccccc3)no2)cc1 25.6% [at 57.5 µM], COc1ccc(-c2nc3c(c(-c4ccccc4)n2)CN(C(=O)c2cccc(Cl)c2)CC3)cc1 7.95%, CN(C)c1cccc(-c2cnc(Nc3cccc(N[S+](C)(=O)[O-])c3)c3c2CCO3)c1 15.1% [at 57.5 µM], COc1ccc(CNC(=O)CC[C@H]2CNC(=O)[C@@H]3[C@@H](CCN3C(C)C)N2C)cc1 0.689% [at 57.5 µM], CC(C)(O)C#Cc1ccc(CN2CCC(CO)(CCCc3ccccc3)CC2)s1 0.33%, Cn1c(CN2CCOCC2)nnc1C1CCCN(C(=O)CNC(N)=O)C1 (centres undefined) -2.53%, CN1C[C@H](NCc2nccn2C)CCC[C@@H](C(=O)NCc2cc(F)cc(F)c2)CC1=O 2.74% [at 57.5 µM], Cc1ccc2nc(C3CCCN(Cc4ccc(-c5cncnc5)cc4)C3)[nH]c(=O)c2c1 (centres undefined) 2.52%, O=C(Cc1c[nH]c2ncc(-c3ccccc3C(F)(F)F)cc12)NCc1cccnc1 7.58% [at 57.5 µM], CC[C@@]1(O)CCN(C(=O)c2cccc(CCC(C)(C)O)c2)C[C@H]1O 1.82%, CC1=C[C@@H](CN2CCN(c3ccccn3)CC2)[C@H](C(C)C)C[C@H]1Cc1nnc(-c2ccccc2)o1 0.468%, COc1ccc(C2Cn3cnc(C(=O)N4CCC(C(=O)Nc5ccc(C)cc5C)CC4)c3CO2)cc1 (centres undefined) 0.873%, O[C@@H]1CC(CNCc2cccc(Cl)c2)(COc2ccccc2)C[C@@H]1O (some centres undefined) 5.41% [at 57.5 µM], COc1ccc(Nc2cnc3ccc(-c4cccc(CO)c4)nn23)cn1 59.5% [at 57.5 µM]
